Experimental data published in PubChem BioAssay AID588342 (National Center for Advancing Translational Sciences (NCATS), 2011).
The whole screen tested about 360,000 compounds, of which about 25,000 (6.9%) were called active. The inconclusive results got no clear call from the source; some entries with a clear call stand among them for comparison. Calls come from the whole dose curve; as a rule, active = well fitted inhibition curve with a large enough effect; inconclusive = small, poorly fitted or top-dose-only effect; inactive = flat fitted curve, though single readings scatter. Potencies of inconclusive entries are doubtful fits and often do not repeat. Some structures have more than one record in an assay (separate samples or runs), and their calls can disagree.

target: Luciferin 4-monooxygenase (Photinus pyralis) (UniProt P08659); assay: qHTS profiling assay for firefly luciferase inhibitor/activator using purifed enzyme and Km concentrations of substrates (counterscreen for miR-21 project); conditions: purified FLuc, luminescence inhibition; series mostly up to 57.5 µM; note: nearly all actives have a fitted effect of over 55% in size
Summary of the method: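 Biochemical qHTS of compounds, final roughly 60 µM downward over six points, against 10 nM purified firefly luciferase using Km concentrations of substrates (10 uM D-luciferin, 10 uM ATP) in Tris acetate pH 7.5 buffer; luminescence output.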
Potency is the fitted concentration of half-maximal effect; tags give direction and shape of the fitted curve.

UniProt P08659, sequence (P08659 whole entry, looked up): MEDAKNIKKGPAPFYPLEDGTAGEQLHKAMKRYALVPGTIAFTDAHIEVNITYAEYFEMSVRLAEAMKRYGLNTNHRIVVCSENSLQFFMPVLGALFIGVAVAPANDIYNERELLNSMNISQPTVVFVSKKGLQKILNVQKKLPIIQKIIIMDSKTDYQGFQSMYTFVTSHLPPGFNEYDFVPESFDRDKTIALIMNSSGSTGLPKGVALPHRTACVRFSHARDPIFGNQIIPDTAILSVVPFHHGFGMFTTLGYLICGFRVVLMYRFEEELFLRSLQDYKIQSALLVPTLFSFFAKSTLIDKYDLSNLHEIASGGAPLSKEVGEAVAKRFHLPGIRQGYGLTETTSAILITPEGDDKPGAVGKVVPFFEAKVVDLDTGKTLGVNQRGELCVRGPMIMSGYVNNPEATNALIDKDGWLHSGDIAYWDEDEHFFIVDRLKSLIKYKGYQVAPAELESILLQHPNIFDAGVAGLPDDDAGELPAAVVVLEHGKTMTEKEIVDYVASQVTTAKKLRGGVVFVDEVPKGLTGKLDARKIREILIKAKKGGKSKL

| Structure (SMILES) | Potency |
| --- | --- |
| O=C(NNC(=O)c1cc2cc3ccccc3nc2s1)c1cccc(Cl)c1 | inconclusive: 30.1 µM [inhibitor, partial curve, poor fit] |
| Cc1cccc(NC(=O)CSc2ccc(-c3ccccn3)nn2)c1 | inconclusive: 16.9 µM [inhibitor, partial curve] |
| Cc1cccc(C)c1Nc1nn2c(=O)c3cc4c(cc3nc2s1)OCO4 | inactive |
| CSCC[C@H](NC(=O)[C@@H]1Cc2ccccc2CN1)C(=O)Nc1ccc2c(c1)OCO2 | inconclusive: 19 µM [inhibitor, partial curve, poor fit] |
| COc1cccc(Cn2c(Oc3cc(C)cc(C)c3)nc3c2c(=O)n(C)c(=O)n3C)c1 | inactive |
| CC1CCN(S(=O)(=O)c2ccc(C(=O)Nc3nnc(-c4ccccn4)o3)cc2)CC1 | inconclusive: 13.5 µM [inhibitor, partial curve, poor fit] |
| O=C(CSc1ncn[nH]1)Nc1cccc(S(=O)(=O)N2CCCCCC2)c1 | inconclusive: 19 µM [inhibitor, partial curve] |
| Cc1nn(S(=O)(=O)c2ccc(Br)cc2)c(C)c1S(=O)(=O)N1CCCCCC1 | inactive |
| CC(C)C(NC(=O)c1ccc(Cl)cc1)C(=O)NCC1CCCO1 (stereo not given) | inactive |
| O=C(c1cnn(C(=O)c2ccccc2F)c1)c1ccccc1O | inconclusive: 30.1 µM [inhibitor, single point] |
| Cc1cc(C)cc(NC(=O)CCS(=O)(=O)c2cccc3nsnc23)c1 | inactive |
| Cc1ccc(-n2c(=O)cc(N3CCN(c4ccccc4Cl)CC3)[nH]c2=O)cc1 | inactive |
| COC(=O)c1ccc(C(=O)OC)c(NC(=O)CN(C)Cc2ccc(Cl)c(Cl)c2)c1 | inactive |
| c1ccc(-c2nnc(NC3=NCCC3)o2)cc1 | active: 6.01 µM |
| CCOC(=O)c1ccc(NC(=O)CSc2nc3sc(C(=O)O)c(C)c3c(=O)[nH]2)cc1 | active: 16.9 µM |
| CCC1CN(C(=O)N2CCC(C(=O)Nc3ccccc3F)CC2)c2ccccc2O1 (stereo not given) | active: 10.7 µM |
| CCOC(=O)CNC(=O)N1CCc2ccc(NC(=O)c3ccccc3Cl)cc2C1 | inconclusive: 21.3 µM [inhibitor, single point] |
| O=C(O)c1cccc(CSc2n[nH]c(-c3ccc(Cl)cc3Cl)n2)c1 | active: 26.9 µM |
| CCOc1ccc(NC(=O)C(C)NC(=O)c2ccccc2Cl)cc1S(=O)(=O)N1CCCC1 (stereo not given) | inconclusive: 19 µM [inhibitor, partial curve, poor fit] |
| Cc1ccc2nc(/C(C#N)=C/c3ccc(-c4cccc([N+](=O)[O-])c4)o3)[nH]c2c1 | inconclusive: 4.26 µM [inhibitor, partial curve, poor fit] |
